Measurements reported in the supplement of paper PMC10126150.
Sequences with one replicate were seen in a single cluster, so their values are uncertain.

Tested on: ATP
Assay: switch fluorescence ratio, 500 uM ATP over buffer (Cy3 cluster intensity, sum of 5 cycles each) (fold (ratio)); higher = stronger signal-on switching upon ATP binding; sequences stand for … in TCGTCGGCAGCGTCAGATGTGTATAAGAGACAGTTTTTTTTTTTTTTTTTTTTTTTTT…TC
Settings: aptamer strand: ATP DNA aptamer (quencher-CACCTGGGGGAGTATTGCGGAGGAAGG + anchor), 100 nM annealed; ATP concentration: 500 uM; one replicate
Method in brief: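 Cy3-labelled switching-strand clusters on a modified Illumina MiSeq flow-cell were annealed to 100 nM quencher-labelled ATP aptamer and imaged first in selection buffer, then after 15 min with 500 uM ATP at 22 °C. NaOH stripping and re-annealing separated each of five buffer/ATP cycles, and clusters outside 100-1000 RFU were excluded. The fluorescence ratio sums target-cycle Cy3 intensity over buffer-cycle Cy3 intensity per cluster and averages it per switch-domain sequence.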
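Further: ATP exposure 15 min at 22 °C before imaging.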

Row | Sequence | switch fluorescence ratio
1 | TTCAAAAATT | 0.999
2 | GCCACTTATT | 0.952
3 | CGAGTGATAT | 1.46
4 | GGATGTAAGC | 1.03
5 | GGTATCAAAG | 1.01
6 | GAGCGAAGAA | 1.03
7 | TTGTCCGCC | 1.17
8 | ATTGGCGTCC | 1.01
9 | AAAAGGTGTC | 1.03
10 | ATCATGACCT | 1.32
11 | CCTGTACTTG | 1
12 | TGATAGATG | 1.03
13 | CAGGCAGATT | 1.02
14 | TTCGTACGGC | 1.04
15 | TTAGGAATTC | 1.09
16 | GGACTAAC | 1.01
17 | CTAGAAACCA | 0.998
18 | AGAGGATATG | 0.987
19 | AAATGTGGGT | 1.07
20 | GGAGGAGTAT | 0.927
21 | AGTCGTCGGG | 1.05
22 | GGAAAGGGCC | 1.01
23 | GATTACGTCT | 1.06

Row | Sequence | switch fluorescence ratio
24 | TTTCCTAGGG | 0.975
25 | TGAGAGGCAA | 1.22
26 | TTCAAGTCTA | 0.962
27 | CCGGTAGCAG | 3.67
28 | GGATGCAAAA | 1.04
29 | CGATCGTCAT | 1.16
30 | ATCAGTTGGG | 0.982
31 | GTGGTGTATT | 0.966
32 | AGGCGTGTCG | 1.03
33 | TACGATAGCC | 1.17
34 | GGAACGTCCT | 1.01
35 | ACATGATGTA | 1.02
36 | ATTGGATCTA | 0.943
37 | CAACACGTAT | 1.18
38 | CAGAAAGTTT | 1.01
39 | GCCGTTAGGA | 0.993
40 | ACCCAATCAC | 1.88
41 | CAGAGTGCCA | 1.01
42 | ACTAGGAAGA | 0.994
43 | TATTAGCAC | 1.03
44 | CGGAACTTCG | 1.06
45 | TACGGAAC | 1.3
46 | TTTTCACCAG | 1.04

Row | Sequence | switch fluorescence ratio
47 | TTTTGAAACA | 1.03
48 | GTCCGTTTTA | 0.984
49 | CAAGGTTCTG | 0.981
50 | AAACATACAG | 1.19
51 | GAGCCGACTG | 0.991
52 | CAGCCGCTTG | 1.34
53 | AATGATTGTG | 1
54 | TCTTAAATTA | 0.967
55 | TTATCTCGGC | 1.06
56 | TGTTCAATA | 0.983
57 | TTTATTTAAA | 1.03
58 | TCAGGGGT | 1.06
59 | CTTATAACGT | 1.03
60 | CTTTGTCGTA | 0.999
61 | TGTGCCCGCT | 0.984
62 | CATTCGCGTT | 1.45
63 | GGGAGTAACG | 0.991
64 | TGGCGTAATC | 1.17
65 | GCAGGAGGTT | 1.01
66 | AATAGAGTGC | 0.979
67 | TGTGGCGCGA | 1.01
68 | GATGGTGATC | 0.995
69 | AAACGTGCAT | 1.08

Row | Sequence | switch fluorescence ratio
70 | TATCGCCAGT | 1.02
71 | TTCGCATTAG | 3.59
72 | AAAGCAAGGT | 1.1
73 | TAGTTGGTT | 1.03
74 | CCCGCGGCTA | 1.27
75 | CTAAAAGTAA | 1.03
76 | GGCGTGGAAA | 1.06
77 | TGCTGGATAC | 1.19
78 | GATCAGAGAT | 1.01
79 | TTGTAGGATC | 0.991
80 | TGTGCGACTT | 0.979
81 | TTACTGTCGC | 1.06
82 | TGCAATGTAA | 0.997
83 | TTCAACGTTG | 1.03
84 | GGTGCTTATT | 1
85 | CGTACCTGCT | 0.949
86 | CAGGCTTAAT | 1.01
87 | AGTAGTCCTG | 1.02
88 | GTTGGATGCG | 1.03
89 | TCTGTCGCGG | 1.01
90 | CGCGGACAAG | 1.03
91 | ATGTGTCC | 0.976
92 | CATGTTCCAA | 0.991

Row | Sequence | switch fluorescence ratio
93 | GCTTTGACGG | 0.935
94 | TTCAAGAGCG | 1.03
95 | ACACCGCGCG | 1.14
96 | GTGAAGGTCA | 1.02
97 | ATGTAGCTTG | 1.04
98 | CACTACGGGG | 1
99 | GCCGTTCGGC | 1.01
100 | TAACTCGTGT | 0.954
101 | AACGACTGGT | 1
102 | ATTCTGATCA | 1.01
103 | TATTTATGAA | 0.906
104 | ACCGCTAGCG | 1.05
105 | TTGGTCAGTA | 1.1
106 | TCGTGATTTG | 0.998
107 | GAAAGTGCAG | 0.975
108 | CGAGTTCCCC | 1.1
109 | AATTCAAAAT | 0.968
110 | TAGAAATGGC | 1.07
111 | GGACATCCTG | 1.02
112 | AGTCATGCAA | 1.13
113 | AAAGATTAC | 1.02
114 | AAAGAATACA | 1.02
115 | AGAGTGGCGT | 0.952

Row | Sequence | switch fluorescence ratio
116 | CGGGGTGACA | 1
117 | ATAGGCTAAT | 1.01
118 | ATGGGAAAGG | 0.99
119 | AGAGCCCAGG | 2.53
120 | CAGGTATTTT | 0.964
121 | TAAGGCCGCC | 0.975
122 | ATGTAGATCG | 0.97
123 | CCACGAAATT | 1
124 | TAATGCATGG | 1.01
125 | ACTTGGCCTC | 0.995
126 | AAAGGCGCAG | 1.05
127 | GCACATTTCC | 1.23
128 | TGTCAATTTT | 1.04
129 | AATTAAGTTT | 0.989
130 | TCTCCTGCTT | 1.28
131 | GAGGGCGAGA | 1.01
132 | GGAGACCAGC | 1.06
133 | CTCGCGTGTA | 1.04
134 | ATTCATGCC | 1.02
135 | TGACAGTTTG | 0.987
136 | CTTTGCAGGC | 1.22
137 | ATGGATGAGC | 1.02
138 | AAACTAGCTA | 0.984

Row | Sequence | switch fluorescence ratio
139 | TGAGTTTACA | 0.995
140 | GTTGAAATCT | 1.02
141 | GAGCCCTAGA | 0.999
142 | GTTGTTGTGC | 1.04
143 | GCATGCACAT | 0.969
144 | TTTGCGTAA | 1.01
145 | ATAAAAATT | 1.01
146 | GCACTGCATA | 1.07
147 | GATCGGCTCT | 0.957
148 | CTCTAGCGAT | 3.87
149 | GCGAAATAA | 1.05
150 | GTGCGAAGGT | 0.991
151 | TGAGGAAGAG | 0.99
152 | GCTAGCCCTT | 1.02
153 | TGTGGCAATA | 2.21
154 | AAGCGGCTAA | 0.997
155 | CTAGTGGTGT | 1.05
156 | TTAGTCGGTG | 1.06
157 | AACAGAGCGG | 0.984
